Laboratory results published in the supplement of paper PMC7826260.
This is one part of the list. Cleavage of a single-stranded DNA pool by Rep nickase domains was read by sequencing at 3 µM enzyme and 37 °C for 1 h; the strands have 90 letters, of which the middle is given. Values are log2 of uncut reads against the no-enzyme pool; more negative means more cut, near 0 not cut, and no call is made. The scaling is to total reads, so uncut sequences can rise above 0 when many others are cut.

Columns and labels:
Test in all cases: uncleaved DNA left, log2 of reads against the no-enzyme library (log2 ratio); higher = less cleavage (more negative = more Rep cleavage of the k-mer); sequences stand for … in CTCGTCCG…ACCGGAGA
[1] = system: T1, Rep nickase domain of Muscovy duck circovirus
T1 sequence (residues 1-111 of Rep, tag left off): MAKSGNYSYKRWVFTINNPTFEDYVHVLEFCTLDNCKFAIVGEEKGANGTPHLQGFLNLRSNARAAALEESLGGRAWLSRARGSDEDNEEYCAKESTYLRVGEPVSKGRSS
Description: (§1)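 A pool of 90-nt single-stranded DNAs with seven random bases just before the constant AC of the nick site (name = the seven bases) was cut by 3 µM recombinant His6-SUMO-tagged Rep nickase domain (300 nM DNA, 50 mM HEPES pH 8.0, 50 mM NaCl, 1 mM MnCl2, 1 h, 37 °C, three replicates). Uncut DNA was amplified and sequenced.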

[2] = system: T2, Rep nickase domain of banana bunchy top virus
T2 sequence (residues 1-94 of Rep, tag left off): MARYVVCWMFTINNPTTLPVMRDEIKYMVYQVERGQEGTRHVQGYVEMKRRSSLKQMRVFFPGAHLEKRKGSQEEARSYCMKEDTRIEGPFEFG
Description: as §1

[3] = system: T3, Rep nickase domain of cabbage leaf curl virus
T3 sequence (residues 1-116 of Rep, tag left off): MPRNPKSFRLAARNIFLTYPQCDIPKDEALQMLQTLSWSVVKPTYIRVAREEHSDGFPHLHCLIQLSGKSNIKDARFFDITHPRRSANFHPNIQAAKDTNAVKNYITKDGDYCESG
Description: as §1

[4] = system: T4, Rep nickase domain of chickpea chlorotic dwarf virus
T4 sequence (residues 1-124 of Rep, tag left off): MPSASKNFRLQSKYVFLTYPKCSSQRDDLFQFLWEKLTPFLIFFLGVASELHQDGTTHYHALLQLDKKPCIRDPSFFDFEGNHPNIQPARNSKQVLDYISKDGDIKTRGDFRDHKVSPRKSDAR
Description: as §1

[5] = system: T5, Rep nickase domain of faba bean necrotic yellows virus
T5 sequence (residues 1-98 of Rep, tag left off): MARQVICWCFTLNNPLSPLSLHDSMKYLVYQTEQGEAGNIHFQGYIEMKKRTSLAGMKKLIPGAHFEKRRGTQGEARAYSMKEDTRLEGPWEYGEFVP
Description: as §1

[6] = system: T6, Rep nickase domain of maize striate mosaic virus
T6 sequence (residues 1-117 of Rep, tag left off): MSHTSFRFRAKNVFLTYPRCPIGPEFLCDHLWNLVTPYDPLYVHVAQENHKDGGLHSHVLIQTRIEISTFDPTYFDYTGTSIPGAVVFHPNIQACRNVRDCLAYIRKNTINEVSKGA
Description: as §1

[7] = system: T7, Rep nickase domain of porcine circovirus 2
T7 sequence (residues 2-116 of Rep, tag left off): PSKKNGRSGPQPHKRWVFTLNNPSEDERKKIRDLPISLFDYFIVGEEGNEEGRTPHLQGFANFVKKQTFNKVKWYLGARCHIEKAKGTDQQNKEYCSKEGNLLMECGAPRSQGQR
Description: as §1

[8] = system: T8, Rep nickase domain of tomato golden mosaic virus
T8 sequence (residues 1-124 of Rep, tag left off): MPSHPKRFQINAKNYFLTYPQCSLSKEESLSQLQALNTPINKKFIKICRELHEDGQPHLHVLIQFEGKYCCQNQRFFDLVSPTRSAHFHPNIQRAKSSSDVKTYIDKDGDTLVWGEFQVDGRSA
Description: as §1

[9] = system: T9, Rep nickase domain of tomato yellow leaf curl virus
T9 sequence (residues 1-136 of Rep, tag left off): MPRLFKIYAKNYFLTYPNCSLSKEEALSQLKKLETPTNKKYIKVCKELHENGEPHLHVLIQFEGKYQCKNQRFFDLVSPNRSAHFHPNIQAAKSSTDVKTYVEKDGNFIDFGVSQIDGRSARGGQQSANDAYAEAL
Description: as §1

[10] = system: T10, Rep nickase domain of wheat dwarf virus
T10 sequence (residues 1-137 of Rep, tag left off): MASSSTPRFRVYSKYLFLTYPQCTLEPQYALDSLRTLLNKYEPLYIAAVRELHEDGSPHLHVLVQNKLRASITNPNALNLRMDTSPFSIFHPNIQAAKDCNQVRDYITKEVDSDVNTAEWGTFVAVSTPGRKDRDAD
Description: as §1

Sequence | uncleaved DNA left (log2) [1] | uncleaved DNA left (log2) [2] | uncleaved DNA left (log2) [3] | uncleaved DNA left (log2) [4] | uncleaved DNA left (log2) [5] | uncleaved DNA left (log2) [6] | uncleaved DNA left (log2) [7] | uncleaved DNA left (log2) [8] | uncleaved DNA left (log2) [9] | uncleaved DNA left (log2) [10]
CGGCATT | -0.0515 | -0.243 | 0.635 | 1.42 | -0.13 | 1.9 | -0.0634 | -0.363 | -0.1 | 0.0319
CCCAACA | -0.135 | -0.0483 | -0.247 | -2.3 | -0.124 | -0.713 | -0.162 | -0.065 | -0.0965 | -0.161
TAACGAA | -0.0799 | -0.157 | -0.675 | -1.93 | 0.0464 | -0.853 | -0.0468 | -0.114 | -0.112 | -0.0806
AGACTCT | 0.054 | -0.00242 | 0.566 | 1.01 | 0.0594 | 1.93 | -0.0128 | 0.0349 | 0.0632 | 0.0428
CCGTTAC | -0.0313 | -0.0912 | -0.104 | -1.24 | 0.0389 | -0.378 | -0.0562 | -0.0654 | -0.0273 | -0.0883
GGGGGAG | -0.067 | -0.0174 | 0.753 | 1.76 | -0.0661 | 2.09 | 0.175 | -0.0523 | 0.0143 | 0.0398
GCACCTA | -0.0726 | -0.0623 | -0.066 | -0.415 | -0.2 | 0.000348 | -0.211 | -0.0561 | -0.0333 | -0.0124
ATATGGC | -0.103 | -0.0259 | -0.412 | -0.634 | 0.0687 | -1.1 | 0.0755 | -0.00278 | 0.0849 | -0.119
ATTTTTG | -0.0216 | 0.0213 | -0.675 | -0.453 | -0.0206 | -1.36 | 0.141 | -0.0187 | -0.0646 | -0.131
CGGCAAG | 0.0344 | 0.103 | -0.278 | -0.166 | -0.106 | -0.534 | 0.235 | 0.0859 | 0.156 | 0.11
GTCTTAA | -0.0309 | 0.126 | 0.378 | 0.87 | -0.0123 | 1.79 | 0.0689 | 0.122 | 0.0618 | 0.191
AAGTAGG | 0.133 | -0.0048 | -0.136 | 0.305 | -0.00564 | -0.288 | -0.00348 | 0.13 | -0.0385 | -0.00325
ACACGGC | -0.00061 | 0.0215 | -0.42 | -0.373 | 0.0348 | -0.937 | 0.209 | 0.0641 | -0.076 | -0.0284
GACGGTC | -0.089 | -0.128 | 0.292 | 0.604 | -0.0115 | 0.873 | 0.0219 | -0.0362 | -0.125 | -0.05
TTACCCT | -0.35 | -0.224 | -0.422 | -2.61 | -0.159 | -0.505 | -2 | -0.254 | -0.143 | -0.198
CCAACGG | 0.00525 | 0.137 | 0.524 | 1.31 | 0.128 | 1.56 | 0.218 | 0.166 | -0.0224 | 0.0457
TGGTCGG | -0.0369 | 0.00596 | 0.487 | 1.33 | -0.00992 | 1.76 | 0.0857 | 0.0492 | -0.0437 | -0.0732
CTAGTAA | -0.075 | -0.091 | -0.188 | -0.431 | -0.0149 | -0.87 | 0.0433 | -0.132 | 0.0781 | -0.173
CTGTGTG | -0.272 | -0.185 | -0.898 | -0.33 | -0.0742 | -1.07 | 0.064 | -0.232 | -0.0731 | -0.324
TTTCCGG | -0.0426 | 0.0376 | 0.547 | 1.48 | -0.0586 | 2.02 | 0.0713 | 0.102 | -0.0148 | 0.0963
AATCGAC | 0.0959 | -0.0325 | 0.05 | 0.208 | 0.078 | 0.283 | 0.11 | 0.19 | 0.0922 | 0.15
ACAGGTT | 0.0242 | -0.0221 | -0.073 | -0.259 | -0.066 | 0.618 | 0.0576 | 0.0571 | -0.229 | -0.0947
CCTCTCT | -0.108 | -0.0157 | -0.145 | -2.14 | -0.0831 | -0.516 | -0.178 | -0.0704 | -0.0215 | -0.128
AGGTTCA | -0.0277 | 0.00398 | 0.09 | -0.266 | 0.0523 | 0.223 | -0.157 | 0.0481 | 0.164 | 0.187
TCGCAAG | 0.0951 | 0.0847 | -0.189 | -0.127 | 0.167 | -0.783 | 0.202 | 0.151 | -0.0436 | 0.0819
ACTTGCC | 0.0466 | -0.00639 | -0.567 | -0.498 | 0.0557 | -0.929 | 0.0381 | -0.154 | -0.0873 | -0.0608
AGCAGGG | 0.0998 | 0.119 | 0.00248 | 0.323 | 0.174 | 0.249 | 0.221 | 0.146 | 0.183 | 0.154
GCCGACG | -0.0482 | -0.0876 | -0.231 | 0.0914 | 0.102 | -0.304 | 0.154 | 0.0524 | -0.114 | -0.113
GCGTCAG | 0.0336 | 0.157 | -0.0434 | 0.422 | -0.0216 | -0.0461 | 0.136 | 0.104 | 0.114 | 0.0655
GCTCCTA | -0.104 | -0.0421 | 0.111 | -0.0323 | -0.0583 | 0.364 | -0.173 | -0.0188 | -0.00603 | -0.0817
